Laboratory results taken from the supplement of paper PMC11417369.
± gives the standard deviation of the averaged measurements. Some of the results follow.

Test system: PfAP2-G AP2 domain (GST-tagged)
Experiment: gcPBM binding intensity (ln(normalized median fluorescence intensity)); higher = stronger DNA binding
Method in brief: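 Probes on an Agilent 4 × 180k array were primer-extended, double-stranded and 36 bp long, taken from intergenic genomic regions, with negative controls added. GST-tagged P. falciparum DNA-binding domains from E. coli, about 25 μg on average, were applied to the array for 1 h in 1× PBS containing 1% milk, 0.2 mg/ml BSA, 0.5% salmon testes DNA and 0.03% Triton X-100. Binding intensity, obtained after Alexa488 anti-GST antibody detection and a 488 nm scan, is the highest Masliner-normalised natural-log median intensity across replicate spots of either probe orientation.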

Row | Sequence | gcPBM binding intensity (ln)
1 | AAAATATATAATATAACACACATATATTCTATATGG [CACACA_site4044] | 9.66 ± 0.17
2 | TTCAAAATATATATTTGTACATATAGGATCTTTTTC [XGTACX_site4500] | 10.7 ± 0.45
3 | GTAATATCAATATAAAGTACACACTATAGTATGTAT [XGTACX_site4714] | 11.4 ± 0.81
4 | TGTAGATATTATATATGTACGCATATGAAATATATA [XGTACX_site1586] | 11.5 ± 0.94
5 | ATTTTAATGACATATACACACAAAGGTTCATAACAA [CACACA_site5664] | 10.11 ± 0.078
6 | ATAAAACCAACATAGAGTACAGATCGACTATGTTTC [XGTACX_site4329] | 11.2 ± 0.72
7 | TTTTCTTTTTAAATTACACACACATATATATATGTA [CACACA_site9172] | 9.97 ± 0.014
8 | TCTTTTTTTTTTTTTTTTTTTTTTTTTTTTTTTTTT [GTGCAC_negctrl_site18] | 11.4 ± 1.1
9 | AAAAAAATTAAAAATAAAGAAAAAAAAAAAAAAAAA [GTGCAC_negctrl_site401] | 9.38 ± 0.38
10 | TATATTCTTTTAAACAGTACACACACACATATATAT [XGTACX_site1701] | 11 ± 0.61
11 | AATATAAAAATATAAAAACACACGTAAAAAAATTTA [CACACA_site3399] | 9.97 ± 0.11
12 | ATATCTTAAATTATTTGTACATATATATATATATAT [XGTACX_site8034] | 10.9 ± 0.68
13 | TTTTATTTATAATATATACACACTAACATTATTTAT [CACACA_site1284] | 9.83 ± 0.042
14 | GAATATTTATCATGGGGTACCTTAAAAAAGGGAAAA [XGTACX_site298] | 11.2 ± 0.73
15 | TTTTTTTTTTTGAGGAGGACACAAAAATATGCTACC [XGTACX_site756] | 11.3 ± 0.93
16 | AATATAAACCCAAACACACACATATATATATATATA [CACACA_site268] | 10.1 ± 0.23
17 | TATACTCAGAAACACACACACACACCCAAAAAAAAA [CACACA_site4434] | 10.4 ± 0.36
18 | ATATAAGTACATATAACACACATATATTATAAGTAT [CACACA_site2647] | 11.2 ± 0.79
19 | TTTGCCATAAAACACACACACATGTAAACCCCCTTT [CACACA_site1646] | 10.9 ± 0.57
20 | GGAAACCCTCCCAAATGTACTTTTATAAAAAAATAC [XGTACX_site5502] | 11.2 ± 0.64
21 | AAAAAAAAAAAAAAAACACACATACACCCAGACACA [CACACA_site5807] | 10.6 ± 0.28
22 | ATACATATATAAATATGTACACACATATGTATGATC [XGTACX_site8219] | 11.3 ± 0.71
23 | TATGCACGCGAACACACACACACAACTAAAAAATAA [CACACA_site7251] | 10.6 ± 0.56

Row | Sequence | gcPBM binding intensity (ln)
24 | TTTTTATTTTTTGTCTGTACATATATAAATTTATTA [XGTACX_site1525] | 11.1 ± 0.77
25 | GATATAAGGGTATGAAGTACATAAATATTTTATGCT [XGTACX_site1886] | 11.3 ± 0.88
26 | TTGTTTATGTGAGAAGTGCATTTTTTCGTTCATGTA | 10.2 ± 0.19
27 | AAGTTTTATATTTATTAAATTTTTTTTTTTCCTTTT [XGTACX_negctrl_site184] | 9.44 ± 0.23
28 | TTTTTTATTTTGTTGAAGCAATGAAAATGAATGAAA [TGCATGCA_negctrl_site495] | 10.1 ± 0.26
29 | ATATGTTTAAAAATATGTACGTATTATATATTCTAT [XGTACX_site1358] | 11.5 ± 0.94
30 | ATGAATTAACCTAATCGTACAATAAATATTATTATA [XGTACX_site596] | 11 ± 0.81
31 | ATATATATATATGTATGTATATATATATGTTTGATT [XGTACX_negctrl_site62] | 9.93 ± 0.35
32 | ACTATTTAAAAATATGGTACACGAAATTCAAGAGAA [XGTACX_site5903] | 11.2 ± 0.71
33 | ATGTAAGTATAAAATGTGCGCATTGGGAATGAGGAC | 10.6 ± 0.26
34 | ACTTCATAGGTTACCTGTACATATAAGGAGTTATCA [XGTACX_site4110] | 11.1 ± 0.71
35 | TTTATATAAGGACATGCATGCTATTATTAAATATAT [TGCATGCA_site1011] | 10.7 ± 0.49
36 | TAATATATAAATATATGTACATAATAAATAGGATAT [XGTACX_site3661] | 11.2 ± 0.66
37 | TACGCGAAATGAATATGTACATATATGAGGGCATAT [XGTACX_site4293] | 11.2 ± 0.66
38 | ATTAAATCATATGAATGTACGGATATATATATTTCC [XGTACX_site8650] | 10.7 ± 0.48
39 | TGATAAATTTTCACATGTACATATATAGAATAACCT [XGTACX_site2860] | 11.3 ± 0.66
40 | TATACACATAGACACACACACATACACGCACATACA [CACACA_site6908] | 10.4 ± 0.3
41 | TAATAAGTATCAAAATGTACATGACAAAAATAATTT [XGTACX_site8961] | 11.1 ± 0.57
42 | TCTAAAAAAATTATATCACACATTATAAAGCATATT [CACACA_site4885] | 9.76 ± 0.014
43 | ATATATATGTATATATGTACATATATGTATATATAT [XGTACX_site4772] | 10.9 ± 0.55
44 | ATAATATATGCAAAAACATGCACATAATATGTAAAA [TGCATGCA_site742] | 9.805 ± 0.007
45 | ATAATTTTATATAAATGTACATACATTTTTATTATA [XGTACX_site7368] | 10.9 ± 0.45
46 | AAGATTCATATAAAAAGTACAAAAAGAAAAAAATAA [XGTACX_site6033] | 11.2 ± 0.7

Row | Sequence | gcPBM binding intensity (ln)
47 | ATTTGAAAAAATACTACACACCATATTGTTAATTTT [CACACA_site3829] | 10 ± 0.042
48 | ATATCTTCACTTATATGTACTTACATTTTTTTTTTT [XGTACX_site8696] | 11.4 ± 0.81
49 | ATAACTATATACATCTGTACATAATACATAGATAAA [XGTACX_site2795] | 11 ± 0.69
50 | CACCCACCCACATACACACACATACACATATATATA [CACACA_site1722] | 10.2 ± 0.25
51 | TTTTTATGTTCTATATATATATATATATATATATAT [GTGCAC_negctrl_site306] | 10 ± 0.43
52 | GCACGTGTGATTAGATGTACATAACATGTATATGTC [XGTACX_site4632] | 11 ± 0.53
53 | TTATAAAAAGAACAATTAAAAAAAAATAAAATAAAA [XGTACX_negctrl_site398] | 9.75 ± 0.071
54 | AGAATAGTGGAAAACACACACGTTTGAGATATGGAC [CACACA_site4782] | 10.225 ± 0.007
55 | CAAATAAAAAAAGTAGCACACATGAATAAAATATAT [CACACA_site3130] | 10.24 ± 0.071
56 | ATACATACATATGTATGTACGTATGTATGTATGTAT [XGTACX_site3853] | 11.4 ± 0.98
57 | ACATATAAGATATATACACACATATAAATACATTAA [CACACA_site7763] | 9.785 ± 0.035
58 | AAAAAAAAAAACTACACACATACAAATATTTATATA [CACACA_site2574] | 9.755 ± 0.064
59 | CATAATATATATTGAGCATGCTACTATTGTTAGAAA [TGCATGCA_site740] | 9.895 ± 0.064
60 | AAGATATGAGGGAATACACACATATATATATATATA [CACACA_site1581] | 10.1 ± 0.48
61 | AAAATGAAGAAGTGCACACATATATATATTTATATA [CACACA_site507] | 10.4 ± 0.23
62 | TTTTTCTTTTTTTTTTCCTTTATCACATAAGAAAAA [CACACA_negctrl_site192] | 10.1 ± 0.35
63 | CTTTTTTTTTAAAAATGTACACATTTTTGAAAATAC [XGTACX_site3127] | 11.4 ± 0.84
64 | AAGAAAATAAATAATACACACAAGGATTTGTAAATA [CACACA_site690] | 9.8 ± 0.28
65 | AAAAAAAAAATTAAAAGTACAGAAAATAAATAAATA [XGTACX_site7470] | 11.4 ± 0.82
66 | ATATGTTTGATTTTTTTTTTTTTTTTTTTTATGTGT [CACACA_negctrl_site1001] | 9.62 ± 0.11
67 | TTAATACACCATAAAAGTACATAATATGATATTTAA [XGTACX_site8561] | 11.3 ± 0.91
68 | CTTAATATGAATAAAACACACATATATAATTTGTAA [CACACA_site5120] | 9.715 ± 0.035
69 | AAAAGAATTAAAAAATGTACATATAATATATATATA [XGTACX_site6721] | 11.1 ± 0.68

Row | Sequence | gcPBM binding intensity (ln)
70 | TTTTTTTTTTTTTTTACACACATTTGAATAACTTTA [CACACA_site6810] | 9.75 ± 0.34
71 | AAGAATTTAGAAGGCATGCACTTAAACATGCATATA | 9.84 ± 0.099
72 | TATAAATATACACCCACACACATATATAAATAAATA [CACACA_site7717] | 10.2 ± 0.16
73 | AAAAAAGAAGACATCTAAGTAATAGTAACAATGTAT [CACACA_negctrl_site1660] | 9.78 ± 0.28
74 | GACATATTATTCATGTGTACATATTATATGTATATA [XGTACX_site3442] | 11.3 ± 0.73
75 | GTAATGAACAAACACAAAAAAAAAAAAAAAATAATA [TGCATGCA_negctrl_site344] | 9.75 ± 0.31
76 | AATTGAGTATCGTGAGTGCAAAACGTGGTTCAAAGA | 10.5 ± 0.29
77 | TAAAATAAAATAAAATGTACTTTCCTTTTGATAATA [XGTACX_site6288] | 10.8 ± 0.64
78 | CATATAATAAATAATACACACATATTGTAAATATAT [CACACA_site5734] | 9.955 ± 0.035
79 | ATATATTTTAGGAGAGTGCATTTAATATTATTTAAT [GTGCAC_site9444] | 9.95 ± 0.13
80 | TTATATATTTATAATCGTACAATAATTAACGTAAAA [XGTACX_site3206] | 11.1 ± 0.57
81 | TTTTCCCTTACAGAAAAAAAAAAATTCCTAACCCCG [CACACA_negctrl_site650] | 10.4 ± 0.52
82 | TTTTTATTTTTTGAAACACACACAAAAAAAATGATA [CACACA_site8564] | 10.3 ± 0.36
83 | TAAGGATATATATATTCACACACACCGGGAAATATA [CACACA_site8020] | 9.995 ± 0.021
84 | AAACAAATATATATATGTACTTATAAAAAAAAAAAT [XGTACX_site2211] | 11.3 ± 0.77
85 | AAGGATCACGCACAAACACACATATTTATATTTATA [CACACA_site6405] | 10.1 ± 0.23
86 | CTTTATTTTTTATACACACACAATATGTATATATAT [CACACA_site3550] | 10.22 ± 0.099
87 | CATTTTTTGCTTTCAACACACATACAATATATATAA [CACACA_site6127] | 10.2 ± 0.22
88 | TATGAAATATTTATACACAGAACTTCATAATTTTCA [TGCATGCA_negctrl_site509] | 9.8 ± 0.12
89 | TATATATGGAAAAGAGTCAAAAAGAAAAAAGAAAAA [CACACA_negctrl_site1374] | 10.2 ± 0.3
